Reference: the supplement of paper PMC11316812

Tests used:
[1] = test system: MCF7; experiment: percentage of EdU-negative (G0-arrested) nuclei per well, 72 h; reference: sequence is the full UniProt precursor, the tested protein was the secreted form or ectodomain; higher = more G0 arrest
[2] = test system: hTERT-HMEC; experiment: percentage of EdU-negative (G0-arrested) nuclei per well, 72 h; higher = more G0 arrest; details: reference: sequence is the full UniProt precursor, the tested protein was the secreted form or ectodomain
[3] = protein concentration 0.0177143 µM
[4] = protein concentration 0.177143 µM
[5] = protein concentration 0.00885714 µM
[6] = protein concentration 0.0885714 µM
[7] = protein concentration 0.0225 µM
[8] = protein concentration 0.01075 µM
[9] = protein concentration 0.1075 µM
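Further: secreted proteins added to cultured cells, EdU pulse at the end, nuclei found by Hoechst imaging, EdU status from nuclear versus surrounding ring intensity ratio, PBS as neutral control.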

“MKSLPILLLLCVAVCSAYPLDGAARGEDTSMNLVQKYLENYYDLKKDVKQFVRRKDSGPVVKKIREMQKFLGLEVTGKLDSDTLEVMRKPRCGVPDVGHFRTFPGIPKWRKTHLTYRIVNYTPDLPKDAVDSAVEKALKVWEEVTPLTFSRLYEGEADIMISFAVREHGDFYPFDGPGNVLAHAYAPGPGINGDAHFDDDEQWTKDTTGTNLFLVAAHEIGHSLGLFHSANTEALMYPLYHSLTDLTRFRLSQDDINGIQSLYGPPPDSPETPLVPTEPVPPEPGTPANCDPALSFDAVSTLRGEILIFKDRHFWRKSLRKLEPELHLISSFWPSLPSGVDAAYEVTSKDLVFIFKGNQFWAIRGNEVRAGYPRGIHTLGFPPTVRKIDAAISDKEKNKTYFFVEDKYWRFDEKRNSMEPGFPKQIAEDFPGIDSKIDAVFEEFGFFYFFTGSSQLEFDPNAKKVTHTLKSNSWLNC” was tested, and the “percentage of EdU-negative” value [1, 3] was 27.88 ± 0.12%, the “percentage of EdU-negative” value [1, 4] was 30.6 ± 0.81% and the “percentage of EdU-negative” value [2, 3] was 5.24 ± 0.45%. The “percentage of EdU-negative” value [2, 4] was 5.87 ± 0.59%.
With “MLPQIPFLLLVSLNLVHGVFYAERYQMPTGIKGPLPNTKTQFFIPYTIKSKGIAVRGEQGTPGPPGPAGPRGHPGPSGPPGKPGYGSPGLQGEPGLPGPPGPSAVGKPGVPGLPGKPGERGPYGPKGDVGPAGLPGPRGPPGPPGIPGPAGISVPGKPGQQGPTGAPGPRGFPGEKGAPGVPGMNGQKGEMGYGAPGRPGERGLPGPQGPTGPSGPPGVGKRGENGVPGQPGIKGDRGFPGEMGPIGPPGPQGPPGERGPEGIGKPGAAGAPGQPGIPGTKGLPGAPGIAGPPGPPGFGKPGLPGLKGERGPAGLPGGPGAKGEQGPAGLPGKPGLTGPPGNMGPQGPKGIPGSHGLPGPKGETGPAGPAGYPGAKGERGSPGSDGKPGYPGKPGLDGPKGNPGLPGPKGDPGVGGPPGLPGPVGPAGAKGMPGHNGEAGPRGAPGIPGTRGPIGPPGIPGFPGSKGDPGSPGPPGPAGIATKGLNGPTGPPGPPGPRGHSGEPGLPGPPGPPGPPGQAVMPEGFIKAGQRPSLSGTPLVSANQGVTGMPVSAFTVILSKAYPAIGTPIPFDKILYNRQQHYDPRTGIFTCQIPGIYYFSYHVHVKGTHVWVGLYKNGTPVMYTYDEYTKGYLDQASGSAIIDLTENDQVWLQLPNAESNGLYSSEYVHSSFSGFLVAPM” the “percentage of EdU-negative” value [1, 5] was 22.7 ± 3.6%, the “percentage of EdU-negative” value [1, 6] was 25.2 ± 0.46% and the “percentage of EdU-negative” value [2, 5] was 5.3 ± 0.21%. The “percentage of EdU-negative” value [2, 6] was 5.39 ± 0.11%.
With “MPHLMERMVGSGLLWLALVSCILTQASAVQRGYGNPIEASSYGLDLDCGAPGTPEAHVCFDPCQNYTLLDEPFRSTENSAGSQGCDKNMSGWYRFVGEGGVRMSETCVQVHRCQTDAPMWLNGTHPALGDGITNHTACAHWSGNCCFWKTEVLVKACPGGYHVYRLEGTPWCNLRYCTVPRDPSTVEDKCEKACRPEEECLALNSTWGCFCRQDLNSSDVHSLQPQLDCGPREIKVKVDKCLLGGLGLGEEVIAYLRDPNCSSILQTEERNWVSVTSPVQASACRNILERNQTHAIYKNTLSLVNDFIIRDTILNINFQCAYPLDMKVSLQAALQPIVSSLNVSVDGNGEFIVRMALFQDQNYTNPYEGDAVELSVESVLYVGAILEQGDTSRFNLVLRNCYATPTEDKADLVKYFIIRNSCSNQRDSTIHVEENGQSSESRFSVQMFMFAGHYDLVFLHCEIHLCDSLNEQCQPSCSRSQVRSEVPAIDLARVLDLGPITRRGAQSPGVMNGTPSTAGFLVAWPMVLLTVLLAWLF” the “percentage of EdU-negative” value [1, 7] was 26 ± 3.7%, the “percentage of EdU-negative” value ([1]; protein concentration 0.225 µM) was 26.29 ± 0.21% and the “percentage of EdU-negative” value [2, 7] was 4.37 ± 0.21%. For the same sequence, the “percentage of EdU-negative” value ([2]; protein concentration 0.225 µM) was 4.96 ± 0.27%.
For “MRVLLHLPALLASLILLQAAASTTRAQTTRTSAISDTVSQAKVQVNKAFLDSRTRLKTAMSSETPTSRQLSEYLKHAKGRTRTAIRNGQVWEESLKRLRQKASLTNVTDPSLDLTSLSLEVGCGAPAPVVRCDPCSPYRTITGDCNNRRKPALGAANRALARWLPAEYEDGLSLPFGWTPGKTRNGFPLPLAREVSNKIVGYLNEEGVLDQNRSLLFMQWGQIVDHDLDFAPDTELGSSEYSKAQCDEYCIQGDNCFPIMFPPNDPKAGTQGKCMPFFRAGFVCPTPPYKSLAREQINALTSFLDASFVYSSEPSLASRLRNLSSPLGLMAVNQEVSDHGLPYLPYDSKKPSPCEFINTTARVPCFLAGDSRASEHILLATSHTLFLREHNRLARELKRLNPQWDGEKLYQEARKILGAFVQIITFRDYLPILLGDHMQKWIPPYQGYSESVDPRISNVFTFAFRFGHLEVPSSMFRLDENYQPWGPEPELPLHTLFFNTWRMVKDGGIDPLVRGLLAKKSKLMKQNKMMTGELRNKLFQPTHRIHGFDLAAINTQRCRDHGQPGYNSWRAFCDLSQPQTLEELNTVLKSKMLAKKLLGLYGTPDNIDIWIGAIAEPLVERGRVGPLLACLLGKQFQQIRDGDRFWWENPGVFTNEQKDSLQKMSFSRLVCDNTRITKVPRDPFWANSYPYDFVDCSAIDKLDLSPWASVKN”, the “percentage of EdU-negative” value [1, 8] was 27.7 ± 0.48%, the “percentage of EdU-negative” value [1, 9] was 26.7 ± 0.36% and the “percentage of EdU-negative” value [2, 8] was 5.54 ± 0.3%. The “percentage of EdU-negative” value [2, 9] was 5.74 ± 0.31%.

± gives the standard deviation of the averaged measurements.
